These results are taken from PMC4336329 (PLoS ONE, 2015).

Screen size: about 310,000 compounds; about 14,000 (4.5%) showed an effect of 50% or more. Effects have a minus sign here. This is one part of the list.
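Also: peak tail current of the secondary pulse compared with the same well before compound.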

human ether-à-go-go-related gene (hERG) potassium channel, sequence (Q12809 whole entry, looked up): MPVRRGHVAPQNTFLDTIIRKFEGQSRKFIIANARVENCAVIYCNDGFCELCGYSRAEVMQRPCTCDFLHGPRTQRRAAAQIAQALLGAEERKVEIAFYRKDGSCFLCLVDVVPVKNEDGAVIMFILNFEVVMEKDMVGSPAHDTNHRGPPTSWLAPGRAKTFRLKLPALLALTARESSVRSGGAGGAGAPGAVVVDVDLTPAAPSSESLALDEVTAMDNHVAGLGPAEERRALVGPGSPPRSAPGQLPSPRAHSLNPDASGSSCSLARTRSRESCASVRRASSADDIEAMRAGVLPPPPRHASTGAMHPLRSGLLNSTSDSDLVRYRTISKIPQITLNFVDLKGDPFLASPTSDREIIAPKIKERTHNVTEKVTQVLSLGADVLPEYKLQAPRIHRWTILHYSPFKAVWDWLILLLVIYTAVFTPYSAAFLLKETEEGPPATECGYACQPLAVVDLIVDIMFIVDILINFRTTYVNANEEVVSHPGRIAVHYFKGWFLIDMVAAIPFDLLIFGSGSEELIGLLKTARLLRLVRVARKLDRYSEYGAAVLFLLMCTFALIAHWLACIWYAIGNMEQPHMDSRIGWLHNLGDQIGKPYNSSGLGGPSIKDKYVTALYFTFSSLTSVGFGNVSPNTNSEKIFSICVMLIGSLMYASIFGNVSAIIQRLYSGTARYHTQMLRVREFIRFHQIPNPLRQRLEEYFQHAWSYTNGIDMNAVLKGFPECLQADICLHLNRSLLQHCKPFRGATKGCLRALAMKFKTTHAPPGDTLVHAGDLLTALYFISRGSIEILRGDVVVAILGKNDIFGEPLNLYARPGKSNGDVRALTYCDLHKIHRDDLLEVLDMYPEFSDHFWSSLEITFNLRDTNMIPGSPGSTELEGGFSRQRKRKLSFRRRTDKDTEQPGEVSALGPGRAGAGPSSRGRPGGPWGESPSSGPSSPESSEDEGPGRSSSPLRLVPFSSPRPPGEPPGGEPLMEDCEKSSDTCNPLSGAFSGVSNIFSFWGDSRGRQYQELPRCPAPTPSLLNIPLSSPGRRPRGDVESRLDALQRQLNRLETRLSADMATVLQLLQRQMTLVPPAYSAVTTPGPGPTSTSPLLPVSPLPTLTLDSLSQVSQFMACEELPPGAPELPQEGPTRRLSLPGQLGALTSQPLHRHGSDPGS

This assay concerns the target human ether-à-go-go-related gene (hERG) potassium channel (human, UniProt Q12809). As to the kind of experiment: primary screen, population patch clamp on CHO cells stably expressing hERG.
`CN(C(=O)COC(=O)c1ccc2ccccc2n1)C1CCS(=O)(=O)C1` (centres unmarked): the “hERG current change (%, negative = inhibition) at 10uM” value was determined as 24.3%.

Consider `C[C@H](NC(=O)C1(c2ccccc2)CCN(C(=O)OC(C)(C)C)CC1)C(=O)N[C@@H](C(=O)O)c1ccccc1`, for which the “hERG current change (%, negative = inhibition) at 10uM” value is given as 5.62%. The figure for `CCOc1ccc(CCNC(=O)Cc2nn[nH]n2)cc1OCC` is -5.13%. As to `Cc1ccc(S(=O)(=O)c2c(CO)c(-c3ccccc3)nn2C)cc1`, the “hERG current change (%, negative = inhibition) at 10uM” value is -9.95%. The figure for `COc1ccc(CN(C(=O)c2ccc(C)cc2)c2cccc(N)c2)cc1` is 10%; for `CC12CC3(C)CC(C)(C1)CC(C(=O)NC(=S)N1CCCC1)(C2)C3` it is 24.5%; for `CC(=O)c1c(C)[nH]c(C(=O)OCc2ccc(F)cc2Cl)c1C` it is 8.34%. For `Cc1cc2nc3n(c2cc1C)CC1CC(C(=O)NCCc2cccs2)N(C)C31` (centres unmarked), the “hERG current change (%, negative = inhibition) at 10uM” value is -38.5%. Next, `COCC(=O)N1CCC(n2nnc3cc(C(F)(F)F)ccc32)CC1`: -22%; `COc1ccc(CNC(=O)c2ccc(C(C)(C)C)cc2)cc1`: 0.683%. The figure for `CC(C)(C)c1ccc(C(=O)Oc2ccccc2CCC(=O)O)cc1` is 15.9%.

As to `Cc1ccc(S(=O)(=O)c2nc(C)oc2N2CCOCC2)cc1`, the “hERG current change (%, negative = inhibition) at 10uM” value is recorded as 6.06%. Next, `CN1CCCN(Cc2cccc3ccccc23)CC1`: 8.91%; `CSc1ccccc1NC(=O)Cc1ccccc1[N+](=O)[O-]`: 12.6%; `CCOCCCNC(=O)c1cc(Cl)c(NC(=O)C2=C(C)OCCS2)cc1OC`: -9.78%. Next, `Cc1ccc(Nc2cc(=O)[nH]c(=O)[nH]2)cc1Cl`: 8.98%; `COC(=O)c1ccccc1NC(=O)CN1CCCCCC1`: 8%. The figure for `COc1cccc(NC(=O)Cn2cnc3c(oc4nc5c(cc43)CCCC5)c2=O)c1` is 13.2%; for `O=c1c(C/C=C/c2ccccc2)c(O)ccn1Cc1cccc(Cl)c1` it is 24.2%; for `Cn1c(SCc2ccccc2)nnc1-c1c[nH]c2ccccc12` it is 12.3%. As to `CCCN1CCN(C(=O)CCCNC(=O)c2ccc(Cl)cc2)CC1`, the “hERG current change (%, negative = inhibition) at 10uM” value is recorded as -0.957%.

With `Cc1c(C)c2ccc(OCC(=O)N3C[C@H]4C[C@@H](C3)c3cccc(=O)n3C4)cc2oc1=O`, the “hERG current change (%, negative = inhibition) at 10uM” value turned out to be 3.23%.

As to `COc1ccc(/C=c2/sc3n(c2=O)C(c2ccccc2OC)C2=C(N=3)c3ccccc3CC2)cc1O` (centres unmarked), the “hERG current change (%, negative = inhibition) at 10uM” value was found to be 2.43%. `CC1(C)CC(=O)C(CC2C(=O)CC(C)(C)CC2=O)C(=O)C1`: the “hERG current change (%, negative = inhibition) at 10uM” value turned out to be 17%. The figure for `Cc1cc(C)c2oc(C(=O)N(Cc3ccc(F)cc3)C3CCS(=O)(=O)C3)cc(=O)c2c1` (centres unmarked) is -43.9%; for `COc1ccc(NC(=O)CCNS(=O)(=O)c2ccc3c(c2)c(=O)n(C)c(=O)n3C)cc1OC` it is 21.4%; for `CC1CC(=O)C2=C(C1)Nc1ncnn1C2c1ccccc1` (centres unmarked) it is 15.5%. Next, `CC(C)N1C(=O)N(c2ccccc2)C(C)(O)CC1(C)C` (centres unmarked): 3.75%; `COc1cccc(CN(C)C(=O)c2ccccc2SCC(=O)N2CCCC2)c1`: -3.76%. On to `CC(C)c1ccccc1NC(=O)COC(=O)CCN1C(=O)/C(=C\C=C\c2ccccc2)SC1=S`, for which the “hERG current change (%, negative = inhibition) at 10uM” value amounted to 8.57%.

`CS(=O)(=O)N1CCN(c2ccc([N+](=O)[O-])c(NCc3cccnc3)c2)CC1`: the “hERG current change (%, negative = inhibition) at 10uM” value is given as -7.21%. Next, `O=C(c1ccco1)N(Cc1cccc(F)c1)C1CCS(=O)(=O)C1` (centres unmarked): -5.78%. In the case of `Cc1ccc(S(=O)(=O)Cn2nnnc2C(C(C)C)N2CCSCC2)cc1` (centres unmarked), the “hERG current change (%, negative = inhibition) at 10uM” value is -2.25%. As to `CCOC(=O)Cn1nc(C)c(NC(=O)COc2ccc(C)c(C)c2)c1C`, the “hERG current change (%, negative = inhibition) at 10uM” value is 12.2%. Next, `Cc1cccc(N2C(=O)C(Oc3ccc(Cl)cc3Cl)C2C(=O)O)c1C` (centres unmarked): 9.02%. In the case of `Cn1c(O)c(/C=N/c2ccccn2)c(=O)n(C)c1=O`, the “hERG current change (%, negative = inhibition) at 10uM” value is recorded as -0.417%. On to `CCOC(=O)N1CCc2c(sc3c2c(=O)n(Cc2ccccc2)c(=O)n3Cc2ccc(C)cc2)C1`, for which the “hERG current change (%, negative = inhibition) at 10uM” value worked out at 17.9%. Turning to `O=C1C=C(c2ccc3ncccc3c2)C[C@@H](c2ccc3c(c2)OCO3)C1`, the “hERG current change (%, negative = inhibition) at 10uM” value worked out at 1.59%. Next, `CC1=NN(C(C#N)c2ccc(F)cc2)C(C)(C)C1` (centres unmarked): 5.24%; `CCCCc1noc(-c2c(-c3ccccc3Cl)noc2C)n1`: -3.35%. Next, `CCNC(=S)NNC(=O)CCn1c2ccccc2c2ccccc21`: 14.4%. Turning to `Cc1coc2cc3oc(=O)c(CCC(=O)NCc4ccccn4)c(C)c3cc12`, the “hERG current change (%, negative = inhibition) at 10uM” value is recorded as -1.39%.

Turning to `CCn1c(=O)n(CC)c2cc(N3CCCC3)c(NC(=O)c3cc(Br)ccc3OC)cc21`, the “hERG current change (%, negative = inhibition) at 10uM” value came out at 7.35%. Take `CC1(C)CC(=O)C2=C(C1)N(CCN1CCOCC1)C1=C(C(=O)CC(C)(C)C1)C2c1ccc(Cl)cc1`: the “hERG current change (%, negative = inhibition) at 10uM” value is -34.1%.
